Laboratory results taken from PubChem BioAssay AID1963576 (National Center for Advancing Translational Sciences (NCATS), 2024).
Among all 46,000 compounds or so, about 60 (0.1%) were called active. Inconclusive results (about 3%) are left out. Calls come from the whole dose curve; as a rule, active = well fitted inhibition curve with a large enough effect; inconclusive = small, poorly fitted or top-dose-only effect; inactive = no such curve, though single readings can be large or run the other way. This is one part of the list.

assay: Primary qHTS assay for Inhibitors of ovarian cancer metastasis using an organotypic tumor microenvironment (TME) model.; note: nearly all actives have a fitted effect of over 65% in size;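 for activity change, negative = inhibition: plate controls were DMSO wells for no effect and tomatine positive control wells for full effect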; conditions: SKOV3ip1-GFP adhesion/invasion on 3D omental model, fluorescence; series mostly up to 45.8 µM; activity change, negative = inhibition: at the top concentration
Method in brief: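 qHTS, 4-pt dose (0.36-46 umol/L); SKOV3ip1-GFP, 1,200 cells/well, no FBS; primary omental fibroblast/mesothelial co-culture 48 h pre-grown; 2 h RT + 16 h 37 C; PBS wash, 4% PFA; GFP count 488/509 nm.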

Activity change, negative = inhibition, inactive:
CCSc1nc2sc3c(c2c(=O)n1-c1ccc(C)c(Cl)c1)CCN(C(C)=O)C3 -0.732%
O=S(=O)(c1ccc2nc(Nc3ccc(Br)cc3F)ccc2c1)N1CCCCC1 0.646%
CCc1ccc(-c2[nH]nc3nc(-c4cc(OC)ccc4OC)cc(C(=O)O)c23)cc1 -16.2%
COC(=O)c1sccc1S(=O)(=O)N(CC(=O)Nc1cc(F)ccc1F)c1ccc(C)c(C)c1 -5.17%
COc1ccc(C)cc1NC(=O)CN(C)S(=O)(=O)c1ccc2[nH]c(=O)oc2c1 -17.9%
CCc1nccn1S(=O)(=O)c1cc(Br)ccc1Br 9.09%
Cc1cc(Cl)ccc1OCCSc1nnc(-c2cccs2)o1 0.52%
COc1cc(F)c(C(C)C)cc1-c1ccc(C(F)(F)F)cc1CN1C(=O)O[C@H](c2cc(C(F)(F)F)cc(C(F)(F)F)c2)[C@@H]1C -14.1%
Cc1ccc(NC(=O)Cn2c(=O)n(CCCCC(=O)NCCc3ccccc3)c(=O)c3ccccc32)cc1 6.77%
O=C(Nc1cccc(C(F)(F)F)c1)C1CCCN(S(=O)(=O)c2cccc3nonc23)C1 (stereo unspecified) -5.54%
Cc1oc2ncn(CC(C)C)c(=O)c2c1C(=O)NCCCN(C)Cc1ccccc1 4.62%
CCOC(=O)c1c(SCC(=O)Nc2cccc(C)c2C)nc(=O)[nH]c1C -7.92%
CCOC(=O)Cn1c(=O)oc2cc(S(=O)(=O)Nc3ccccc3F)ccc21 -7.23%
COc1cc(C(C)C)c(Oc2cnc(NC(CO)CO)nc2N)cc1I -8.1%
Cc1cc2oc(C(=O)Nc3ccc(S(=O)(=O)N(C)c4ccccc4)cc3)cc(=O)c2cc1C 11.3%
O=C(Cn1cc(S(=O)(=O)Cc2ccccc2Cl)c2ccccc21)Nc1ccc(F)cc1F -4.74%
O=C(Cn1ncc2c(Cl)cccc21)NCc1cccc(F)c1 -17.3%
COC(=O)c1ccc2c(c1)N(Cc1cc(C)ccc1C)C(=O)c1ccccc1S2(=O)=O 57.2%
CCOc1ccc(S(=O)(=O)N2CCC(n3c(C)nc4cccnc43)CC2)cc1 9.19%
CCOc1ccc(CNC(=O)c2ccc3c(c2)N(Cc2ccccc2)CCS3)cc1 -8.89%
COc1ccccc1N1CCN(C(=O)COc2ccccc2C#N)CC1 23.7%
CN(C(=O)CSc1nc2ccccc2n1CC(=O)N(C)C1CCCCC1)c1ccc(F)cc1 1.01%
COC(=O)c1cc2sccc2n1Cc1nc(-c2ccc(C)cc2)oc1C -15.1%
CCc1ccccc1NC(=O)c1ccc2c(c1)c(C)c(C)n2Cc1ccccc1 11.9%
CCOC(=O)c1c(C)[nH]c(C)c1S(=O)(=O)N(C)CC(=O)Nc1ccc(C)c(F)c1 69.7%
CC(=O)Nc1ccc2nc(SCCOc3ccccc3Cl)sc2c1 2.55%
CCCCN(c1ccccc1)c1ncnc2c1cnn2-c1cccc(C)c1 3.04%
CCOc1ccc(NC(=O)Cn2c(=O)n(-c3ccccc3)c(=O)c3c4c(sc32)CCCC4)cc1 9.85%
CCc1nnc2c3ccccc3nc(N3CCN(c4cc(Cl)ccc4C)CC3)n12 4.49%
O=C(COc1ccc(Br)cc1)Nc1ccc(C(=O)OC2CCCCC2)cc1 8.12%
CCc1ccc(S(=O)(=O)c2cn(Cc3ccc(OC)cc3)c3cc(OC)c(OC)cc3c2=O)cc1 8.64%
CC(=O)N1CCCc2cc(S(=O)(=O)N3CCCC(C(=O)Nc4ccc(C)c(F)c4)C3)ccc21 (stereo unspecified) -0.919%
Cc1cccc(C(=O)Nc2ccccc2OCc2cc(=O)n3cc(C)ccc3n2)c1 7.31%
COc1cc(OC)c2c(C)c(CC(=O)N3CCCCC3)c(=O)oc2c1 14.5%
CCc1nc2nc(C)cc(Nc3ccc(F)c(Cl)c3)n2n1 27.4%
O=C1CC(c2ccc(Br)cc2)c2c(ccc3ccccc23)N1 (stereo unspecified) 6.07%
Cc1c(Cl)cccc1NC(=O)Cn1c(=O)n(Cc2ccco2)c(=O)c2oc3ccccc3c21 -0.973%
COC(=O)c1c(Oc2ccc(Br)cc2)nnc(-c2ccccc2)c1-c1ccccc1 -1.31%
CC(C)n1c(=O)c2oc3ccccc3c2n(CC(=O)Nc2ccccc2Cl)c1=O 12%
CC(Oc1ccc(O)cc1)(P(=O)(O)O)P(=O)(O)O -6.81%
CCN(CC)CCCNc1oc(-c2ccc(OC)cc2)nc1C#N -0.72%
COc1ccccc1-c1c(C)nn2c(N3CCN(c4ccc(F)cc4)CC3)cc(C)nc12 -10.4%
COc1ccc(N2CC(NC(=O)c3cccs3)CC2=O)cc1OC (stereo unspecified) -4.29%
O=C(Nc1ccc(F)cc1)c1ccc(-n2cnnc2)cc1 -17.3%
CC(=O)Nc1ccc(NS(=O)(=O)c2ccc3c(c2)CCCN3C(C)=O)cc1 5.14%
O=C1NC(=O)C(c2ccccc2[N+](=O)[O-])=C1Nc1ccc(O)c(Cl)c1 5.65%
O=C(Nc1nnc(S(=O)(=O)N2CCCCC2)s1)c1ccc(Cl)cc1 -7.29%
CCc1ccc(-c2[nH]c3c(c2-c2c(-n4cccc4)n(C)c(=O)[nH]c2=O)c(=O)[nH]c(=O)n3C)cc1 6.69%
COc1ccc(-n2ncc(C(=O)Nc3ccc(C)cc3Cl)c2C2CCN(C(=O)OC(C)(C)C)CC2)cc1 -0.798%
COc1ccccc1CNC(=O)c1ccc(NC(=O)N2CC(C)Sc3ccccc32)cc1 (stereo unspecified) 1.33%
Cc1cccc(C)c1NC(=O)C1CCCN(S(=O)(=O)c2c(C)noc2/C=C/N(C)C)C1 (stereo unspecified) 0.531%
CCN(CC)CCNC(=O)C1CCCN(c2nnc(C)c3c(C)n(-c4ccc(Cl)cc4)nc23)C1 (stereo unspecified) -7.04%
CCOc1ccc(NC(=O)CSc2nnc(CC)c(CC)n2)cc1 -6.83%
CCOc1ccc(-c2cn3c(n2)sc2cc(C(=O)NCCC4=CCCCC4)ccc23)cc1 13.5%
COc1ccc(S(=O)(=O)NCC(c2ccco2)S(=O)(=O)c2ccc(C)cc2)cc1C (stereo unspecified) 3.12%
Cc1ccc(-c2noc(-c3cccnc3NCc3ccc(Cl)cc3)n2)cc1 -5.1%
Cc1ccc(-c2nc3scc(CCNS(=O)(=O)c4ccc(C)c(C)c4)n3n2)cc1 7.74%
COC(=O)c1ccc(NC(=O)CSc2ccc(-c3cccs3)nn2)cc1 -20.8%
Cc1cccc(OCC(=O)Nc2ccc(C(=O)OCc3cc(=O)n4nc(C5CC5)sc4n3)cc2)c1 -0.181%
CCOC(=O)c1cc(-c2ccc(C)cc2)n(CCC(=O)NCc2ccccc2)c1C 5.15%
C#CCOc1ccc(C2C(C(=O)OC)=C(C)NC3=C2C(=O)c2ccccc23)cc1OCC (stereo unspecified) 10.4%
Cc1cc(C)c(NC(=O)c2cc(CN3CCOCC3)on2)c(C)c1 3.9%
CCc1ccc(NC(=O)C(Cc2ccccc2)NS(=O)(=O)c2ccc3c(c2)CCN3C(C)=O)cc1 (stereo unspecified) 9.62%
CN1CCN(C(=O)c2cnn(-c3cccc(F)c3)c2C2CCN(C(=O)OC(C)(C)C)CC2)CC1 7.07%
CCOc1ccccc1CNC(=O)c1nn(C)c2c1CS(=O)(=O)c1ccccc1-2 4.61%
CC(C)c1ccc(CNc2nc(-c3ccco3)nn2S(=O)(=O)c2ccccc2)cc1 -10.7%
Cc1cc2c(cc1NC(=O)c1ccc(C(C)(C)C)cc1)n(C)c(=O)c(=O)n2C 0.627%
COc1ccc(N2CCN(C(CNC(=O)c3ccc(C)cc3)c3ccc4c(c3)OCO4)CC2)cc1 (stereo unspecified) -7.08%
Cc1csc2nc(COc3ccc(NC(=O)COc4ccc(F)cc4)cc3)cc(=O)n12 -4.99%
Cc1ccc(NC(=O)Cn2cc(S(=O)(=O)N3CCN(c4ccccc4F)CC3)c3ccccc3c2=O)cc1F -1.23%
Cc1sc(-c2cc3ccccc3oc2=O)nc1-c1ccc(Cl)cc1 1.2%
COC(=O)c1cc(S(=O)(=O)N2CCN(c3ccc(C)cc3C)CC2)cn1C 1.94%
Cc1ccc(-c2cc(C(=O)Oc3ccccc3)c3cccc(C)c3n2)cc1 -17.8%
COc1ccc(NC(=O)c2sc3nc[nH]c(=O)c3c2C)cc1 -5.6%
CCCCCCOc1ccc(-c2nc3ccc(Br)cc3c(=O)o2)cc1 -0.167%
CCOc1ccc(C2c3c(oc4ccc(C)cc4c3=O)C(=O)N2c2nc(C)c(C)s2)cc1OC (stereo unspecified) -1.01%

outcome, inactive:
O=C(COc1ccccc1Cl)Nc1ccc2nc(SCC(=O)N3CCOCC3)sc2c1
Cc1ccc(NC(=O)CSc2nccn2-c2ccccc2)cc1
COC(=O)c1ccc2c(c1)N(CC(=O)Nc1ccc(C)cc1Cl)C(=O)c1ccccc1S2
O=C(CCNS(=O)(=O)c1ccc2c(c1)CCCC(=O)N2)NCc1ccc(Cl)cc1
Cc1ccccc1Cn1cc(S(=O)(=O)c2ccc(F)cc2)c(=O)c2cc3c(cc21)OCO3
Cc1cc(=O)n(Cc2ccc(Br)cc2F)c2c1c(C)nn2-c1ccccc1
CCn1c(C)c(C)c2cc(C(=O)NCCc3cc(OC)ccc3OC)ccc21
COc1cc(-c2nnc(SCCOc3ccccc3)o2)cc(OC)c1OC
Cc1oc2c(C)c3oc(=O)c(CCC(=O)N4CCCCC4)c(C)c3cc2c1C
CC(=O)N1CCc2c(sc(NC(=O)CSc3ccc(F)cc3)c2-c2nc3ccccc3s2)C1
COc1ccc(-c2noc(-c3ccc(NCCc4ccccc4)c([N+](=O)[O-])c3)n2)cc1
Cc1ccc(Cn2c(CO)cnc2SCC(=O)Nc2cccc(F)c2)cc1
Cc1cc(C)c(NC(=O)C2CCCN(C(=O)c3cnn(-c4ccccc4)c3-n3cccc3)C2)c(C)c1 (stereo unspecified)
COc1ccc(NC(=O)CCc2c(C)nc3cc(-c4cccc(F)c4)nn3c2C)cc1Cl
Cc1ccc(CN2CCC(CNC(=O)Nc3cccc(C)c3C)C2)cc1 (stereo unspecified)
O=S(=O)(NCCc1csc(-c2ccc(F)cc2)n1)c1ccc(F)cc1F
CCOc1ccc(Sc2cc(C(=O)NCCCOC)c3ccccc3n2)cc1
COc1ccc2cc(S(=O)(=O)c3ccccc3F)c(=O)oc2c1
Cc1ccc(C)c(CSc2c(C(C)C)cnc3c2c(=O)n(C)c(=O)n3C)c1
COC(=O)c1ccccc1NC(=O)Nc1cccc(OCc2cc(=O)n3cccc(C)c3n2)c1
